# Data: the supplement of paper PMC7826260
# This is one part of the list. One pool of 16,384 single-stranded DNAs met each Rep nickase domain in vitro for 1 h at 37 °C with 3 µM enzyme; only the middle of the 90-letter strands is printed. Values are log2 of uncut reads against the no-enzyme pool; more negative means more cut, near 0 not cut, and no call is made. Counts are relative to all reads, so uncut sequences can rise above 0 when many others are cut.
# What was measured:
# Assay in all cases: uncleaved DNA left, log2 of reads against the no-enzyme library (log2 ratio); higher = less cleavage (more negative = more Rep cleavage of the k-mer); sequences stand for … in CTCGTCCG…ACCGGAGA
# [1] = system: T1, Rep nickase domain of Muscovy duck circovirus
# T1 sequence (protein, residues 1-111, tag omitted): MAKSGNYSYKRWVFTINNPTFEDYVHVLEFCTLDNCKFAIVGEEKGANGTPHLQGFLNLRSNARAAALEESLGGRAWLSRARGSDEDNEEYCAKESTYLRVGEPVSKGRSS
# Procedure: (§1)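 A pool of 90-nt single-stranded DNAs with seven random bases just before the constant AC of the nick site (name = the seven bases) was cut by 3 µM recombinant His6-SUMO-tagged Rep nickase domain (300 nM DNA, 50 mM HEPES pH 8.0, 50 mM NaCl, 1 mM MnCl2, 1 h, 37 °C, three replicates). Uncut DNA was amplified and sequenced.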
# [2] = system: T2, Rep nickase domain of banana bunchy top virus
# T2 sequence (protein, residues 1-94, tag omitted): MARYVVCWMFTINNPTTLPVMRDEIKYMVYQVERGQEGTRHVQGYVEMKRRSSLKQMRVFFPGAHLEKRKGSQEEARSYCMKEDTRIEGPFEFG
# Procedure: as §1
# [3] = system: T3, Rep nickase domain of cabbage leaf curl virus
# T3 sequence (protein, residues 1-116, tag omitted): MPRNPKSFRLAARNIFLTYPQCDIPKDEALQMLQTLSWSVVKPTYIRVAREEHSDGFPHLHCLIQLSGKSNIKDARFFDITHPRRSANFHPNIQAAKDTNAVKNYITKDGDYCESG
# Procedure: as §1
# [4] = system: T4, Rep nickase domain of chickpea chlorotic dwarf virus
# T4 sequence (protein, residues 1-124, tag omitted): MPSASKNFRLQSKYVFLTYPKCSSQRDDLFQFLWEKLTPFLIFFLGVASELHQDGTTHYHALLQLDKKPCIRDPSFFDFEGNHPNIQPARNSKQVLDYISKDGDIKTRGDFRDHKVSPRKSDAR
# Procedure: as §1
# [5] = system: T5, Rep nickase domain of faba bean necrotic yellows virus
# T5 sequence (protein, residues 1-98, tag omitted): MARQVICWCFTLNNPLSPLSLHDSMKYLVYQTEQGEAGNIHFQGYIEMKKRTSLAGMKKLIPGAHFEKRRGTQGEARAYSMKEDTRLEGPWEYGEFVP
# Procedure: as §1
# [6] = system: T6, Rep nickase domain of maize striate mosaic virus
# T6 sequence (protein, residues 1-117, tag omitted): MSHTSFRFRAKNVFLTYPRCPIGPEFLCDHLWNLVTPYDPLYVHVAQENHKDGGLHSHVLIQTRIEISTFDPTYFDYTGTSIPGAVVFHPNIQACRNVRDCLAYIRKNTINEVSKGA
# Procedure: as §1
# [7] = system: T7, Rep nickase domain of porcine circovirus 2
# T7 sequence (protein, residues 2-116, tag omitted): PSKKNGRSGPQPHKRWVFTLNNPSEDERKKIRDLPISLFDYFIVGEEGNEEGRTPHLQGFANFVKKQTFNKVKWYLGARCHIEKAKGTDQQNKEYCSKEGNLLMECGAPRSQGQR
# Procedure: as §1
# [8] = system: T8, Rep nickase domain of tomato yellow leaf curl virus
# T8 sequence (protein, residues 1-136, tag omitted): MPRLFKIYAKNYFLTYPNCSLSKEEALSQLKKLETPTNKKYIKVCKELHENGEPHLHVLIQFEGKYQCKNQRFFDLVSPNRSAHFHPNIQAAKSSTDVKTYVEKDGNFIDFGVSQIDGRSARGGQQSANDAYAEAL
# Procedure: as §1
# [9] = system: T9, Rep nickase domain of wheat dwarf virus
# T9 sequence (protein, residues 1-137, tag omitted): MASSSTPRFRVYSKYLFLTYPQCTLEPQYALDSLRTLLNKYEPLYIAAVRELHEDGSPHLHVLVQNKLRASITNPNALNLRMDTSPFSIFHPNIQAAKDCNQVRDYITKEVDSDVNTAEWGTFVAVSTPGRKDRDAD
# Procedure: as §1
Sequence,uncleaved DNA left (log2) [1],uncleaved DNA left (log2) [2],uncleaved DNA left (log2) [3],uncleaved DNA left (log2) [4],uncleaved DNA left (log2) [5],uncleaved DNA left (log2) [6],uncleaved DNA left (log2) [7],uncleaved DNA left (log2) [8],uncleaved DNA left (log2) [9]
GCCCGTT,0.0801,0.0855,0.316,0.0051,0.17,0.438,0.164,0.0998,-0.0656
CGTTTCA,-0.189,0.0802,0.0485,-0.132,-0.202,0.245,-0.0352,-0.036,0.056
AGTGAGG,-0.0274,-0.00472,0.0149,0.718,-0.0488,1.34,0.0493,-0.0296,0.000665
CTACCTA,-0.0271,-0.0305,-0.167,-2.48,-0.00088,-0.63,-0.985,0.0306,-0.0712
CGAAGAT,-0.0086,0.0341,0.162,0.738,-0.00215,1.06,0.0997,-0.14,-0.0421
GGCTATC,-0.0599,-0.0549,0.389,1.07,-0.0795,1.57,-0.0231,-0.0337,-0.0148
TAGCGAA,0.0605,0.0538,-0.336,-0.446,0.0473,-0.849,-0.159,0.033,0.00597
CAACTGG,-0.0235,-0.0741,-0.195,-0.118,-0.0858,-0.569,0.0129,-0.012,0.0438
TACTGGA,-0.11,0.0239,-0.00493,-0.00784,-0.0355,0.101,-1.55,-0.0282,0.0707
CTGTTTT,-2.7,-0.928,0.0414,-2.07,-0.678,-0.413,-3.12,-0.215,-0.126
ATTCTTG,-0.0469,-0.222,-0.6,-2.48,-0.17,-1.32,-0.098,-0.161,-0.232
GAGGTCA,0.00568,0.154,0.764,1.85,0.059,1.98,0.0404,0.0632,0.151
CGCAGGA,-0.0349,-0.0963,0.0398,0.363,-0.182,-0.132,-0.0175,-0.0985,-0.14
CAGATTG,0.185,0.106,0.0548,0.559,0.0429,0.388,0.188,-0.0339,0.094
AAGATAG,0.083,0.0278,-0.507,-0.513,0.11,-1.05,0.297,0.0646,0.00105
GACTTGG,-0.0065,-0.0892,-0.244,0.0918,-0.0399,-0.62,0.124,-0.0518,-0.0686
TTTGGTC,0.0737,-0.0448,0.0879,-0.127,0.0856,-0.452,0.0536,0.0298,-0.0731
CAGGGCC,0.0601,0.0374,0.0559,0.165,0.0323,-0.211,0.0224,0.061,0.0612
TTAATGC,0.0431,-0.0238,-0.312,-0.742,0.071,-1.2,0.143,0.0149,-0.07
TCTGTCG,0.0822,-0.182,-0.841,0.0915,-0.0371,-1.05,0.108,-0.107,-0.118

Sequence,uncleaved DNA left (log2) [1],uncleaved DNA left (log2) [2],uncleaved DNA left (log2) [3],uncleaved DNA left (log2) [4],uncleaved DNA left (log2) [5],uncleaved DNA left (log2) [6],uncleaved DNA left (log2) [7],uncleaved DNA left (log2) [8],uncleaved DNA left (log2) [9]
TAGGTAA,0.0589,-0.0179,0.336,0.369,-0.0719,1.05,-0.17,-0.0318,0.0415
TCCTTTA,-0.0874,-0.0712,0.201,-1.17,-0.0874,-0.469,-0.284,0.0423,-0.0958
GTCCGTC,0.0364,0.0263,0.283,0.708,-0.0105,1.29,0.0189,0.0314,0.0903
CAGCAGA,0.0645,-0.0346,-0.294,-0.517,0.0629,-1.06,-0.0751,-0.00916,-0.0515
ACTTTGT,-0.0954,-0.0887,-0.379,-0.807,-0.0341,-1.21,-0.286,-0.198,-0.21
TGATACC,-0.186,-0.0538,-0.662,-0.428,-0.18,0.55,-2.77,-0.192,-0.554
CGGAACA,-0.0257,0.017,0.369,0.45,0.0123,1.29,-0.0602,-0.0944,0.0204
TAGGTCC,0.0792,0.114,0.0499,0.316,-0.0187,0.627,0.0502,0.152,0.122
TAAATAC,0.00226,-0.035,-1.02,-2.65,-0.0467,-0.793,-0.0391,0.00178,-0.479
GAGCTCC,0.129,0.139,0.219,0.445,0.168,1.09,0.0374,0.12,0.182
ATTTTAC,-1.28,0.0831,-0.355,-2.43,0.111,-0.869,-0.656,0.0226,0.0822
GCGACAA,-0.0938,0.0908,0.241,1.16,-0.0456,1.67,0.123,0.0417,0.0962
GAGGTTA,0.217,0.175,0.307,0.488,0.0172,1.7,-0.039,0.055,0.115
ATTTTGT,-0.62,-0.372,-0.394,-0.99,-0.00681,-1.26,-1.14,-0.00771,-0.136
GAGGCCC,0.148,0.158,0.443,1.29,0.0593,1.64,0.115,0.201,0.334
GAAAGTG,0.13,-0.0014,-0.451,-0.514,0.0848,-0.75,0.226,0.0959,0.00894
GAGTTCT,-0.998,-2.29,0.119,-1.92,-1.57,1.05,-3.3,-0.00533,0.0287
ATAAAGG,-0.0189,-0.0208,0.145,0.898,-0.00391,0.0345,0.114,-0.098,0.0823
CCCCCGC,-0.205,-0.246,-0.454,-0.801,-0.252,-0.94,-0.307,-0.191,-0.162
GAGTACA,0.0126,0.0104,0.46,0.0208,-0.0831,1.61,-2.41,0.00607,0.0748

Sequence,uncleaved DNA left (log2) [1],uncleaved DNA left (log2) [2],uncleaved DNA left (log2) [3],uncleaved DNA left (log2) [4],uncleaved DNA left (log2) [5],uncleaved DNA left (log2) [6],uncleaved DNA left (log2) [7],uncleaved DNA left (log2) [8],uncleaved DNA left (log2) [9]
TGGACAA,0.238,0.256,1.02,2.3,0.205,2.43,0.321,0.202,0.294
AGTCATA,0.0465,0.0732,-0.019,-0.355,0.00505,0.0465,-1.02,0.00167,0.0464
CAAAGCG,-0.0708,-0.00652,-0.817,-0.0785,0.107,-0.917,0.153,0.0471,-0.0782
CGTTTGG,-0.0373,-0.0104,-0.438,-0.455,0.0519,-0.918,0.0429,-0.0294,-0.0215
TTCATAT,0.162,0.032,0.356,-0.35,0.136,-0.202,0.0272,0.114,0.102
TCCCCTT,-0.0926,-0.0557,0.032,-1.41,-0.103,-0.0559,-0.378,0.0826,-0.0542
CAAGCTC,0.0849,0.0412,-0.0795,0.385,-0.168,0.824,0.102,-0.0807,0.0159
CCTTGGC,-0.0752,-0.148,-0.293,-0.335,-0.00473,-0.9,-0.0494,-0.135,-0.248
AAGTAGA,0.0281,0.0533,-0.117,-0.198,0.0987,-0.384,-2.15,0.0471,0.0108
CGGGTTC,0.0157,-0.0249,0.426,0.527,0.019,1.23,0.18,0.0587,0.137
TTCCCGC,0.0526,-0.0176,-0.234,-0.685,-0.0376,-0.82,-0.0066,-0.0139,-0.0633
CCACCAG,-0.0489,-0.118,-0.892,-0.759,-0.164,-1.1,-0.0621,-0.0547,-0.165
GGAAGGG,0.121,0.0194,0.234,0.617,0.000307,0.242,0.227,0.011,-0.0966
CAGTCAA,-0.116,-0.0488,-0.0559,-0.399,-0.127,-0.491,-2.61,0.0544,0.0359
TCTTGGT,-0.427,-0.31,-0.106,-0.317,-0.221,-0.474,-1.69,-0.169,-0.238
CGAACAG,0.0107,0.00526,-0.216,-0.121,0.0211,-0.278,0.102,-0.0597,-0.00548
CGTTAAT,-2.43,-0.267,-0.0117,-0.636,-0.058,-0.362,-3.04,0.042,-0.121
GTGCTCA,-0.015,-0.076,0.196,0.895,-0.0811,1.63,0.0507,0.001,0.0749
GCTGCAG,-0.0273,-0.227,-0.752,-0.634,-0.099,-1.02,0.00385,-0.138,-0.131
CTCTCAA,-0.112,-0.0291,-0.0524,-0.327,-0.24,-0.601,-0.0207,-0.125,-0.188
